Data taken from the supplement of paper PMC12217912.
Some of the results follow. Sequences were assembled here from the parent chain. Inactive controls read about 0.05.

B1: TEV protease; numbered along this chain (parent)
chain: MGESLFKGPRDYNPISSSICHLTNESDGHTTSLYGIGFGPFIITNKHLFRRNNGTLVVQSLHGVFKVKDTTTLQQHLVDGRDMIIIRMPKDFPPFPQKLKFREPQREERICLVTTNFQTKSMSSMVSDTSCTFPSGDGIFWKHWIQTKDGQCGSPLVSTRDGFIVGIHSASNFTNTNNYFTSVPKNFMELLTNQEAQQWVSGWRLNADSVLWGGHKVFMVKPEEPFQPVKEATQL

Variants of: B1
Assay: raw area under fraction-flipped curve 0-4 h after induction (AUC4h, not background-subtracted), DNA-recorder readout of cleavage of the substrate (dimensionless); higher = more cleavage of the substrate by the protease variant
Conditions: temperature: 34 °C; time window: 0-4 h after rhamnose induction
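Note: Bxb1 expression induced with 0.2% (w/v) L-rhamnose at OD600 near 0.5, cultures sampled hourly, flipped fraction per protease–substrate barcode pair counted by paired-end Illumina sequencing.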

Row | Variant | area with substrate ENLYDQS | area with substrate ENLYEQS | area with substrate ENLYGQS | area with substrate ENLYKQS | area with substrate ENLYLQS | area with substrate ENLYMQS | area with substrate ENLYNQS | area with substrate ENLYPQS | area with substrate ENLYQQS | area with substrate ENLYVQS | area with substrate ENLYHQS | area with substrate ENLYIQS | area with substrate ENLYRQS | area with substrate ENLYSQS | area with substrate ENLYWQS | area with substrate ENLYYQS | area with substrate ENLYTQS
1 | V200T | 0.0506 | 0.0708 | 0.0602 | 0.0617 | 0.0635 | 0.0839 | 0.0522 | 0.0738 | 0.0712 | 0.101 |  |  |  |  |  |  | 
2 | N24W | 0.0626 | 0.0607 | 0.0622 | 0.0651 |  | 0.0646 | 0.0835 | 0.0636 | 0.0613 | 0.0697 | 0.0601 | 0.12 | 0.0664 | 0.0592 | 0.0708 | 0.0617 | 
3 | T72C | 0.0432 |  |  |  | 0.0851 | 0.0814 | 0.0874 | 0.0695 | 0.0448 | 0.105 |  |  |  | 0.0702 | 0.0991 |  | 
4 | N175K | 0.0679 | 0.0607 | 0.0655 | 0.0665 | 0.069 | 0.0678 | 0.0668 | 0.073 |  | 0.119 | 0.0674 | 0.12 | 0.0623 | 0.0745 |  | 0.0595 | 0.089
5 | N24D | 0.0589 | 0.0603 | 0.0523 | 0.0346 | 0.054 |  | 0.0644 | 0.0268 | 0.0605 | 0.0901 | 0.0625 | 0.086 | 0.057 | 0.0621 | 0.051 | 0.0575 | 0.0655
6 | A232N | 0.0582 |  |  |  |  | 0.0869 | 0.0609 |  | 0.0673 |  | 0.0591 | 0.129 | 0.0541 | 0.0601 |  |  | 0.0457
7 | M88W | 0.0524 | 0.0608 | 0.058 | 0.0454 |  | 0.0729 | 0.0621 | 0.0604 | 0.0534 | 0.0701 | 0.0557 | 0.106 | 0.0499 |  |  | 0.0635 | 
8 | C152V | 0.0536 | 0.0566 | 0.0609 | 0.0665 |  | 0.0628 |  | 0.0526 | 0.0621 | 0.0599 | 0.0622 | 0.0586 | 0.06 |  | 0.0557 | 0.0629 | 
9 | D208S | 0.0606 |  | 0.0516 | 0.0527 |  | 0.0824 | 0.0834 |  |  |  |  |  | 0.0713 | 0.0947 | 0.0791 | 0.0366 | 
10 | D128K | 0.0541 |  | 0.103 |  |  |  |  |  | 0.0668 |  | 0.0469 |  | 0.0421 | 0.0776 | 0.0944 |  | 0.0882
11 | L48Q | 0.0619 | 0.0629 | 0.084 | 0.0245 |  | 0.064 | 0.0643 | 0.0597 | 0.0614 | 0.0626 | 0.0525 | 0.0584 | 0.0633 | 0.0574 | 0.0284 | 0.0454 | 0.0598
12 | T174D | 0.0582 | 0.0636 | 0.0566 | 0.071 |  | 0.0728 | 0.0723 | 0.0679 | 0.0642 | 0.0883 | 0.0659 | 0.113 | 0.0678 | 0.064 | 0.08 | 0.0649 | 0.0793
13 | P184V | 0.0635 | 0.0733 | 0.0629 | 0.0649 |  | 0.071 |  | 0.0637 | 0.051 |  | 0.0499 |  |  | 0.059 | 0.0697 | 0.0587 | 
14 | D128R | 0.076 | 0.121 | 0.0878 | 0.0132 |  | 0.118 | 0.0578 | 0.0703 |  | 0.143 | 0.0632 | 0.111 | 0.0557 |  | 0.109 |  | 
